In paper PMC10726135:
Some of the results follow. At the low end of the ranking the order means little. The protein was read in a cell extract, so binding may be indirect.

What follows are sequences tested against T1, HNF4alpha2 (COS-7 nuclear extract) (UniProt P41235) (assay: protein-binding microarray). Settings: COS-7 nuclear extract on double-stranded Agilent 4x180k PBM; binding buffer, salt, pH and temperature not given; high values mean tight binding; double strand, one strand shown; sequences stand for … in …GCCTAGGGAGATTAGAGTATCGGTCGA.
T1 sequence: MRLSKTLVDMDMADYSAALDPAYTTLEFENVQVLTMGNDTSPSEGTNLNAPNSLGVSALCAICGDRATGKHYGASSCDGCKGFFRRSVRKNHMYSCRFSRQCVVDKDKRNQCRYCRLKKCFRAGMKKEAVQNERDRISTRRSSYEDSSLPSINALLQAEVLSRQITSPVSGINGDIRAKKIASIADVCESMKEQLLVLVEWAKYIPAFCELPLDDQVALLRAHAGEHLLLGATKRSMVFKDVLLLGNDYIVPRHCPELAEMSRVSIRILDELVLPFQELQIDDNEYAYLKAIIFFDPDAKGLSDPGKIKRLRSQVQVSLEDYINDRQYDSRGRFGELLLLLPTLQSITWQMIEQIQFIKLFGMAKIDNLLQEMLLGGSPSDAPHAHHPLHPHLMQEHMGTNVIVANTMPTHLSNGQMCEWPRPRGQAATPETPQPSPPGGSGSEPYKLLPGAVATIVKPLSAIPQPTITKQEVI
In the case of TTGGACCACAGAGTGACCTGGTATTGCAAG, the binding signal (log2 normalized intensity) is reported as 1.66.
GTAAGATAAGGTGAACATACGTGGCTACCT showed a binding signal (log2 normalized intensity) of -1.11.
AGAACCTGCCCATGACCTTTGGACTGTGAC gave a binding signal (log2 normalized intensity) of 9.54.
CAATGCCACAGAAAAGGCAGCAGCTTGGAA was tested, and the binding signal (log2 normalized intensity) was -1.17.
For AGCAGAAAGGAGGCAGAGACTGCCCTGAGC, the binding signal (log2 normalized intensity) was -1.27.
GGAAATTACCCTCTAATGGTATTCACTTTA was tested, and the binding signal (log2 normalized intensity) was 0.723.
Sequence ATGGACTTTGAAGGAGATTCCTGTGTCAGC has a binding signal (log2 normalized intensity) of 0.984.
TGGAGATAACAGTGTAAGGACATTGCCCCC was tested, and the binding signal (log2 normalized intensity) was 5.41.
With TTTGCAATCCTCCACTCTCCAAAATAGGGT the binding signal (log2 normalized intensity) was 0.728.
ACACTTGTACATACTTTTGGGGTATGTGTG gave a binding signal (log2 normalized intensity) of 2.3.
For TGAACTTTGCCTTAGGCCATTGTCCTTTGG, the binding signal (log2 normalized intensity) was 2.85.
CAGCAGCTATCAGTGGTCCGAACTACAGGG showed a binding signal (log2 normalized intensity) of -1.06.
Sequence GCAGAGCTATGGAATTTTGGCCTTTTTGTC has a binding signal (log2 normalized intensity) of 1.41.
Sequence CTATTGGTTGTCAGACTGGTGTAGTGGGGA has a binding signal (log2 normalized intensity) of 1.57.
ATGTTCTAACCATAGGAGGCTGGTCTAAGT showed a binding signal (log2 normalized intensity) of -0.115.
CTTTCATCTCGGCTGGCTACTGCTCCACCT showed a binding signal (log2 normalized intensity) of -1.15.
AGGTCATCCTGGGCTACCGATATGAGGCTT was tested, and the binding signal (log2 normalized intensity) was -1.06.
ACAATTGGCCAAAGTTCAGTAAATCTTAGA showed a binding signal (log2 normalized intensity) of 2.24.
In the case of TCTGTTATCAGACACAAGAATTACTACTCT, the binding signal (log2 normalized intensity) is reported as -0.959.
Sequence CCTCACCTCCAGGGAGGGGAGAGGGGGTTA has a binding signal (log2 normalized intensity) of -1.07.
Work on AAATATAGTTAAAGCCAGCTGTCTATCCTT yielded a binding signal (log2 normalized intensity) of -1.15.
Work on GTTCCACTGGTAACTAGGTTAATGTGAACA yielded a binding signal (log2 normalized intensity) of 0.933.
Sequence AGGTAATAGGAAAAGGGAGTTTTCTGCTCT has a binding signal (log2 normalized intensity) of -1.11.
ATCACTGAAGCGACCCCTCGAGGCAACCTT gave a binding signal (log2 normalized intensity) of 1.12.
CTAGTGATGTGGAAATCTGGACTCAGCAGA gave a binding signal (log2 normalized intensity) of 1.46.
CAGTAGGAGTTGGAACGGGGGCAAGGGTCA gave a binding signal (log2 normalized intensity) of 5.21.
Sequence GGCCATCTAGCTACAGGAGAACAAAGTTCA has a binding signal (log2 normalized intensity) of 3.08.
Work on GGAGTAGTCAAATTTGTCTAGCGCAAATGA yielded a binding signal (log2 normalized intensity) of -1.18.
CAGGCGGAGCACACCAGGCCCTCGGCATCA gave a binding signal (log2 normalized intensity) of -1.08.
CCACATTCTGAGACTAAAGAGTACACAAAG gave a binding signal (log2 normalized intensity) of -0.922.
TACTCATGTGGTCCTAAGACTAACCTTTGA was tested, and the binding signal (log2 normalized intensity) was 6.33.
Sequence TCCTGGGAGAGAAAAGCAAGATTGGGAGCT has a binding signal (log2 normalized intensity) of -0.855.
Sequence GCAAATGTGTCTTTTTTAGTCAGCATAGTT has a binding signal (log2 normalized intensity) of 1.83.
Work on GCACTTTGCACCTGGGCTGGAAAGGCCACC yielded a binding signal (log2 normalized intensity) of 2.49.
Work on CCCATGCCCTTAGCCACTGCATGATAGGCC yielded a binding signal (log2 normalized intensity) of -0.635.
Sequence ACAATGCCTTGTGTACTGAGCAGGGTCCAA has a binding signal (log2 normalized intensity) of 3.13.
Work on TCCTCTCCTACTTCTGTTTAAACTGATAAC yielded a binding signal (log2 normalized intensity) of 1.39.
With AGAGTGATCTTTGGGCCATATTGACTAAAC the binding signal (log2 normalized intensity) was 0.454.
Work on CCTATGGTCTGTTCACTTGCCAAGCCTAGT yielded a binding signal (log2 normalized intensity) of -1.02.
GATGGGGTCATGATAAGAGCAGAGACAGGC gave a binding signal (log2 normalized intensity) of -0.866.
